# Data reported in the supplement of paper PMC4604168 (melanoma cell lines).
# The list shows a part of the results. Repeats are few or missing, and single values can be far off.
# What was measured:
# Assay in all cases: cell count relative to DMSO control; melanoma cells; higher = more viable cells
# Conditions in all cases: library dose: low library concentration; 72 h
# MZ2-MEL = tested on: MZ2-MEL
# MeWo = tested on: MeWo
# RPMI7951 = tested on: RPMI7951
# RVH-421 = tested on: RVH-421
# SkMel28 = tested on: SkMel28
# SkMel2 = tested on: SkMel2
# SkMel30 = tested on: SkMel30
# SkMel5 = tested on: SkMel5
# UACC257 = tested on: UACC257
# UACC62 = tested on: UACC62
# 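Also: cell number obtained by counting DAPI-stained nuclei in high-throughput microscope images with image analysis software, screen run in 1,536-well plates.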
SMILES,cell count (MZ2-MEL),cell count (MeWo),cell count (RPMI7951),cell count (RVH-421),cell count (SkMel28),cell count (SkMel2),cell count (SkMel30),cell count (SkMel5),cell count (UACC257),cell count (UACC62)
"CC(C)C[C@H](NC(=O)[C@H](Cc1ccccc1)NC(=O)c1cnccn1)B(O)O [Bortezomib] + C[C@@H]1CCN(C(=O)CC#N)C[C@@H]1N(C)c1ncnc2[nH]ccc12 [CP690550] (first compound 0.001 µM, partner dose 1 µM)",76%,85.1%,78.8%,66%,94%,93.9%,89.1%,103%,63.7%,90.8%
"Cc1cn(-c2cc(NC(=O)c3ccc(C)c(Nc4nccc(-c5cccnc5)n4)c3)cc(C(F)(F)F)c2)cn1 [nilotinib] + Oc1nc(-c2ccc(C(F)(F)F)cc2)nc2c1CSCC2 [XAV939] (first compound 0.2 µM, partner dose 2 µM)",89%,102%,88.9%,103%,102%,79.3%,118%,80.5%,95.9%,101%
"Cc1cn(-c2cc(NC(=O)c3ccc(C)c(Nc4nccc(-c5cccnc5)n4)c3)cc(C(F)(F)F)c2)cn1 [nilotinib] + O=C(CCCCCCC(=O)Nc1ccccc1)NO [vorinostat] (first compound 0.2 µM, partner dose 0.08 µM)",99.7%,98.7%,92.7%,99.2%,76.7%,92.9%,112%,91.5%,86.7%,87.9%
"Cc1cn(-c2cc(NC(=O)c3ccc(C)c(Nc4nccc(-c5cccnc5)n4)c3)cc(C(F)(F)F)c2)cn1 [nilotinib] + NC(=O)Nc1cc(-c2cccc(F)c2)sc1C(=O)N[C@H]1CCCNC1 [AZD7762] (first compound 0.2 µM, partner dose 0.02 µM)",113%,100%,83.9%,119%,101%,107%,95.9%,99.5%,119%,106%
"Cn1c(=O)n(-c2ccc(C(C)(C)C#N)cc2)c2c3cc(-c4cnc5ccccc5c4)ccc3ncc21 + COc1cc2c(Oc3ccc4[nH]c(C)cc4c3F)ncnc2cc1OCCCN1CCCC1 [cediranib] (first compound 0.004 µM, partner dose 0.4 µM)",97%,90.6%,86.3%,95.4%,82.3%,84.5%,105%,115%,88.1%,80.6%
"Cc1cc(Nc2cc(N3CCN(C)CC3)nc(/C=C/c3ccccc3)n2)n[nH]1 + OCCn1cc(-c2cnc3nnn(Cc4ccc5ncccc5c4)c3n2)cn1 [PF04217903] (first compound 0.04 µM, partner dose 1 µM)",102%,101%,81.9%,92.2%,87.3%,96.3%,113%,94.2%,82.8%,92.8%
"Cc1cn(-c2cc(NC(=O)c3ccc(C)c(Nc4nccc(-c5cccnc5)n4)c3)cc(C(F)(F)F)c2)cn1 [nilotinib] + Cn1cncc1[C@@](N)(c1ccc(Cl)cc1)c1ccc2c(c1)c(-c1cccc(Cl)c1)cc(=O)n2C [tipifarnib] (first compound 0.2 µM, partner dose 0.01 µM)",104%,91.9%,88.3%,82.6%,83.8%,75.6%,86.9%,104%,73.8%,83.3%
"Cc1cn(-c2cc(NC(=O)c3ccc(C)c(Nc4nccc(-c5cccnc5)n4)c3)cc(C(F)(F)F)c2)cn1 [nilotinib] + O=C(O)c1ccc2c(c1)nc(Nc1cccc(Cl)c1)c1ccncc12 [CX4945] (first compound 0.2 µM, partner dose 0.4 µM)",85.3%,103%,84.5%,77.5%,93.8%,85.4%,98%,–,–,118%
"Cn1c(=O)n(-c2ccc(C(C)(C)C#N)cc2)c2c3cc(-c4cnc5ccccc5c4)ccc3ncc21 + CC(=O)c1c(C)c2cnc(Nc3ccc(N4CCNCC4)cn3)nc2n(C2CCCC2)c1=O [palbociclib] (first compound 0.004 µM, partner dose 0.04 µM)",80.6%,73.1%,77.5%,76.8%,71.7%,68.4%,72%,–,–,67.7%
"Cc1cn(-c2cc(NC(=O)c3ccc(C)c(Nc4nccc(-c5cccnc5)n4)c3)cc(C(F)(F)F)c2)cn1 [nilotinib] + Cc1nc(Nc2ncc(C(=O)Nc3c(C)cccc3Cl)s2)cc(N2CCN(CCO)CC2)n1 [dasatanib] (first compound 0.2 µM, partner dose 0.004 µM)",92.7%,93.8%,66.9%,140%,79.6%,112%,80.3%,–,–,77.1%
"COc1ccc(C2=N[C@@H](c3ccc(Cl)cc3)[C@@H](c3ccc(Cl)cc3)N2C(=O)N2CCNC(=O)C2)c(OC(C)C)c1 [Nutlin-3] + Cc1nc(Nc2ncc(C(=O)Nc3c(C)cccc3Cl)s2)cc(N2CCN(CCO)CC2)n1 [dasatanib] (first compound 0.1 µM, partner dose 0.004 µM)",80.6%,88.9%,73.5%,66.8%,80.8%,107%,93.4%,–,–,74.1%
"Cn1c(=O)n(-c2ccc(C(C)(C)C#N)cc2)c2c3cc(-c4cnc5ccccc5c4)ccc3ncc21 + C=CCNC1=C2C[C@@H](C)C[C@H](OC)[C@H](O)[C@@H](C)/C=C(\C)[C@H](OC(N)=O)[C@@H](OC)/C=C\C=C(/C)C(=O)NC(=CC1=O)C2=O [Tanespimycin] (first compound 0.004 µM, partner dose 0.002 µM)",98.3%,76.8%,90.6%,97.5%,81.4%,99%,85.3%,–,–,85.2%
"Cc1cn(-c2cc(NC(=O)c3ccc(C)c(Nc4nccc(-c5cccnc5)n4)c3)cc(C(F)(F)F)c2)cn1 [nilotinib] + C=C(c1ccc(C(=O)O)cc1)c1cc2c(cc1C)C(C)(C)CCC2(C)C [Bexarotene] (first compound 0.2 µM, partner dose 2 µM)",101%,78%,95.5%,95%,70.1%,77.7%,96.8%,–,–,106%
"Cn1c(=O)n(-c2ccc(C(C)(C)C#N)cc2)c2c3cc(-c4cnc5ccccc5c4)ccc3ncc21 + COc1ccc(Cl)c(Nc2nc3ccccc3nc2NS(=O)(=O)c2cccc(NC(=O)C(C)(C)N)c2)c1 [XL147] (first compound 0.004 µM, partner dose 0.8 µM)",92.5%,79.6%,90.1%,86.2%,74.5%,89.9%,91%,–,–,88.9%
"Cc1cc(Nc2cc(N3CCN(C)CC3)nc(/C=C/c3ccccc3)n2)n[nH]1 + COCC[n+]1c2c(n(Cc3cnccn3)c1C)C(=O)c1ccccc1C2=O [YM155] (first compound 0.04 µM, partner dose 0.0004 µM)",56.6%,98%,76.8%,84.7%,111%,89.1%,91.4%,–,–,89.7%
"Cn1c(=O)n(-c2ccc(C(C)(C)C#N)cc2)c2c3cc(-c4cnc5ccccc5c4)ccc3ncc21 + C[C@]1(c2nc3c(C(N)=O)cccc3[nH]2)CCCN1 [Veliparib] (first compound 0.004 µM, partner dose 1.4 µM)",97%,79.5%,73.7%,102%,79.6%,85.2%,80.5%,–,–,82.2%
"COc1ccc(C2=N[C@@H](c3ccc(Cl)cc3)[C@@H](c3ccc(Cl)cc3)N2C(=O)N2CCNC(=O)C2)c(OC(C)C)c1 [Nutlin-3] + CC(C)C[C@H](NC(=O)[C@H](Cc1ccccc1)NC(=O)c1cnccn1)B(O)O [Bortezomib] (first compound 0.1 µM, partner dose 0.001 µM)",107%,96.5%,91.2%,80.2%,87.5%,106%,115%,–,–,92.3%
"COc1ccc(C2=N[C@@H](c3ccc(Cl)cc3)[C@@H](c3ccc(Cl)cc3)N2C(=O)N2CCNC(=O)C2)c(OC(C)C)c1 [Nutlin-3] + Clc1ccc(Nc2nnc(Cc3ccncc3)c3ccccc23)cc1 [vatalanib] (first compound 0.1 µM, partner dose 2 µM)",91.5%,73%,79.3%,75%,75.5%,94.5%,89%,–,–,79.3%
"Cn1c(=O)n(-c2ccc(C(C)(C)C#N)cc2)c2c3cc(-c4cnc5ccccc5c4)ccc3ncc21 + CC(C)C[C@H](NC(=O)[C@H](Cc1ccccc1)NC(=O)c1cnccn1)B(O)O [Bortezomib] (first compound 0.004 µM, partner dose 0.001 µM)",93.1%,83.3%,85.6%,66.9%,81.2%,89.6%,80.5%,–,–,81%
"Cc1cn(-c2cc(NC(=O)c3ccc(C)c(Nc4nccc(-c5cccnc5)n4)c3)cc(C(F)(F)F)c2)cn1 [nilotinib] + CCCCCCCCc1ccc(CCC(N)(CO)CO)cc1 [fingolimod] (first compound 0.2 µM, partner dose 2 µM)",97.2%,88.2%,88.3%,104%,78.7%,88%,92.9%,–,–,90.8%
"CC(C)C[C@H](NC(=O)[C@H](Cc1ccccc1)NC(=O)c1cnccn1)B(O)O [Bortezomib] + O=C(O)[C@@H]1[O][Sb](=[O])([O][Sb]2(=[O])[O][C@H]([C@H](O)CO)[C@H](O)[C@H](C(=O)O)[O]2)[O][C@H]([C@H](O)CO)[C@@H]1O [stibogluconate] (first compound 0.001 µM, partner dose 2 µM)",97%,97%,89.3%,94.9%,99.6%,96%,104%,–,–,104%
"Cc1cc(Nc2cc(N3CCN(C)CC3)nc(/C=C/c3ccccc3)n2)n[nH]1 + C[C@]1(c2nc3c(C(N)=O)cccc3[nH]2)CCCN1 [Veliparib] (first compound 0.04 µM, partner dose 1.4 µM)",98.1%,93%,98.7%,80.3%,81.6%,113%,107%,–,–,79.3%
"Cc1cn(-c2cc(NC(=O)c3ccc(C)c(Nc4nccc(-c5cccnc5)n4)c3)cc(C(F)(F)F)c2)cn1 [nilotinib] + CC(=O)c1c(C)c2cnc(Nc3ccc(N4CCNCC4)cn3)nc2n(C2CCCC2)c1=O [palbociclib] (first compound 0.2 µM, partner dose 0.04 µM)",78.1%,83.2%,71.1%,90.5%,100%,82.2%,71.7%,–,–,79.9%
